# About 16,000 (7.3%) of roughly 220,000 compounds were called active. Inconclusive means that the source gave no clear call. Such entries were picked first, then a sample of the others. Calls follow the shape of the dose curve; as a rule, active = well fitted inhibition curve with a large enough effect (not every such curve was filed as active); inconclusive = small, poorly fitted or top-dose-only effect, or another doubt; inactive = no such curve, though single readings can be large or run the other way. Potencies of inconclusive entries are left out as doubtful fits.
# Target: Aldehyde dehydrogenase 1A1 (Homo sapiens) (UniProt P00352)
# UniProt P00352, sequence (P00352 whole entry, looked up): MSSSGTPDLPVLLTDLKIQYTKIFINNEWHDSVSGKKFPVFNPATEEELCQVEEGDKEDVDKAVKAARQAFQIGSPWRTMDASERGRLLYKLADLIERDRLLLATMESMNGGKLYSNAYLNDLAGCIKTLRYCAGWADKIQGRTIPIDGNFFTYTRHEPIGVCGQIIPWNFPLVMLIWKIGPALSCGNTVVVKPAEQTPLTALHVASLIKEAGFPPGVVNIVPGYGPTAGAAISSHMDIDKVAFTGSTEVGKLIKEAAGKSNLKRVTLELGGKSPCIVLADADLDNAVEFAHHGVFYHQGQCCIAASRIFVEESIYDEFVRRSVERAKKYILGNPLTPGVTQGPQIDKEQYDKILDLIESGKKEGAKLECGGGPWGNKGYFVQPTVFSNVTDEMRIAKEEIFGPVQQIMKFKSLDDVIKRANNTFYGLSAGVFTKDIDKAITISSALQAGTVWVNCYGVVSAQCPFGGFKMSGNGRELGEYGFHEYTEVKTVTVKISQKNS
# Experiment: qHTS Assay for Inhibitors of Aldehyde Dehydrogenase 1 (ALDH1A1);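 as to activity, negative = inhibition: plate controls were no enzyme wells and a reference inhibitor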
# Details: Purified ALDH1A1, NADH fluorescence, propionaldehyde substrate; series mostly up to 75.3 µM
# Potency is read from the fitted curve at half-maximal effect; tags tell the direction and shape of the fitted curve.
SMILES,Potency,"activity, negative = inhibition"
CCOC(=O)c1c(NC(NC(C)=O)C(Cl)(Cl)Cl)sc(C(C)=O)c1C (centres undefined),"inconclusive [inhibitor, partial curve]",–
COCCNC(=O)C(=O)N/N=C(\C)CC(=O)Nc1cccnc1,inactive,–
O=c1c2cnn(-c3ccccc3)c2nc(-c2cccs2)n1-c1ccc(Cl)cc1,"inconclusive [inhibitor, single point]",–
FC(F)(F)c1ccccc1-c1nc(N2CCNCC2)c2ccccc2n1,"inconclusive [inhibitor, single point]",–
O=C(CCc1ccccc1)NCCSCc1c(F)cccc1Cl,inactive,–
O=C(CN1CCN(c2ccccn2)CC1)N1c2ccccc2CCc2ccccc21,"inconclusive [inhibitor, single point]",–
CNC(=S)N(CCc1cccc(C)c1)Cc1cc2cc(OC)c(OC)cc2[nH]c1=O,"inconclusive [inhibitor, single point]",–
COC(=O)c1sccc1NC(=O)CSc1ccccc1NS(=O)(=O)c1ccccc1Cl,active: 7.08 µM,–
CC1(OC(=O)CCc2ccccc2)C(=O)C=C2C=C(c3ccc(C#N)cc3)N(CCc3c[nH]c4ccccc34)C=C2C1=O (centres undefined),–,inactive: 13.1% [at 13.5 µM]
Cc1ccc2c(c1)N(CCCC(=O)NCCC1=CCCCC1)C(=O)CO2,"inconclusive [inhibitor, partial curve]",–
COc1ccc(CCNC(=O)CSc2nc3c(c(=O)n(C)c(=O)n3C)n2C(C)C)cc1OC,inactive,–
CCN(CC)S(=O)(=O)c1ccc(OC)c(NC(=O)Cc2cccs2)c1,"inconclusive [inhibitor, single point]",–
CCOC(=O)c1c(CSc2cccs2)n(C)c2cc(Br)c(O)c(CN(C)C)c12,"inconclusive [inhibitor, partial curve]",–
CCn1c2ccccc2c2nnc(SCc3cc(=O)n4ccsc4n3)nc21,inactive,–
CC1Cc2ccccc2N1CC(=O)Nc1ccc(Cl)c(S(=O)(=O)N(C)C)c1 (centres undefined),"inconclusive [inhibitor, partial curve]",–
C=CC1=C2C=C(C3CC3)N(CC(C)C)C=C2C(=O)C(C)(OC(=O)c2ccco2)C1=O (centres undefined),–,inactive: -1.97% [at 13.5 µM]
CCOC(=O)/C(=N\Nc1ccccc1)S(=O)(=O)c1ccccc1,active: 15.8 µM,–
Nc1ccccc1N=c1ssnc1Cl,"inconclusive [inhibitor, full curve]",–
CC1(C)Cc2nc3nc(SCC(=O)Nc4ccccc4)nc(N)c3cc2CO1,"inconclusive [inhibitor, partial curve]",–
